About 14,000 (4.5%) of roughly 310,000 compounds showed an effect of 50% or more. The effect is printed as a negative number. This is one part of the list.
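Further: peak tail current of the secondary pulse compared with the same well before compound.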

human ether-à-go-go-related gene (hERG) potassium channel, sequence (Q12809 whole entry, looked up): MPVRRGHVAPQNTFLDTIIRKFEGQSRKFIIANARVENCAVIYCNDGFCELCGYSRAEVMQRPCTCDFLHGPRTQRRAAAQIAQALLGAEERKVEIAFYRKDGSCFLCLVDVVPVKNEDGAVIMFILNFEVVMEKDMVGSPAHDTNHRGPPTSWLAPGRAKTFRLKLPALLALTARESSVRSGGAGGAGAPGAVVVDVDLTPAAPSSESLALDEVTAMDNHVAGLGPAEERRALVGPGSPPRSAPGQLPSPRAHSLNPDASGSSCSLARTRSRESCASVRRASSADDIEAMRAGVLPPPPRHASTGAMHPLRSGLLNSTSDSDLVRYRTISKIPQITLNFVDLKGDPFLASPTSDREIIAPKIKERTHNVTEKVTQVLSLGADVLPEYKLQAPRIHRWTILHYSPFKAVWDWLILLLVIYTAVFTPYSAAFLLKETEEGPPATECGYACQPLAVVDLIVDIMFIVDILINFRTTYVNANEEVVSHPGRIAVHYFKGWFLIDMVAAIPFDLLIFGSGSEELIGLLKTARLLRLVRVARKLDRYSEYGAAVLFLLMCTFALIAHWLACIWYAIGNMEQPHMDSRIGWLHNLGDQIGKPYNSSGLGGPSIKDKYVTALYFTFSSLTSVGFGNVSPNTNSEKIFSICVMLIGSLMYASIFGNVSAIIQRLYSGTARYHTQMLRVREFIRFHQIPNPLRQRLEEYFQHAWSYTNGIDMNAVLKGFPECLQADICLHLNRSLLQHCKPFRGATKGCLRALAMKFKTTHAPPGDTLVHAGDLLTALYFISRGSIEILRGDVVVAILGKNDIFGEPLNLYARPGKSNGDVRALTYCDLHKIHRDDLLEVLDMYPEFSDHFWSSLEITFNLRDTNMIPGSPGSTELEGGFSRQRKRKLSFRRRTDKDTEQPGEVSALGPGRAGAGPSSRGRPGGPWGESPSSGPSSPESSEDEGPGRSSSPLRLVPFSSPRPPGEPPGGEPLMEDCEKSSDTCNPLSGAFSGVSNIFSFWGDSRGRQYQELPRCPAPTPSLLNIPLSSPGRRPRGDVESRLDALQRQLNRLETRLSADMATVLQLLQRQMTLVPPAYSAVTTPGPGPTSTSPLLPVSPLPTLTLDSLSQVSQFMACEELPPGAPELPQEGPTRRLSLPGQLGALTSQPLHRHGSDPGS

This experiment has as its target human ether-à-go-go-related gene (hERG) potassium channel (human, UniProt Q12809). As to the kind of experiment: primary screen, population patch clamp on CHO cells stably expressing hERG.
In the case of `Oc1ccc2ccccc2c1C=NC1CCCCC1`, the “hERG current change (%, negative = inhibition) at 10uM” value is 10.4%.
For `CCC(Sc1nc(N)c(NC(=O)c2ccco2)c(=O)[nH]1)C(=O)O` (stereo not drawn) the value was 8.16%; for `Cc1c(C(=O)N(Cc2ccccc2)Cc2cccnc2)cnn1-c1ccc(F)cc1`, -43.9%.
As for `O=S(=O)(CCN1CCOCC1)c1ccc(Oc2ccc(S(=O)(=O)CCN3CCOCC3)cc2)cc1`, the figure is 10%.
As for `COc1cc(C2/C(=C(\O)c3ccc4c(c3)OCCO4)C(=O)C(=O)N2CCN2CCOCC2)cc(OC)c1OC` (stereo not drawn), the figure is 18.2%; as for `CCc1cc2c3c([nH]c2cc1S(=O)(=O)NCCCOC)CC(C)(C)CC3=O`, 6.76%; as for `COc1ccccc1NC(=O)Nc1nc(C(C)(C)C)cs1`, 15.5%.
On to `CS(=O)(=O)N1N=C(c2ccc(Br)cc2)CC1c1ccc2c(c1)OCO2` (stereo not drawn), for which the “hERG current change (%, negative = inhibition) at 10uM” value was -3.15%.
As for `Cc1cc(C)cc(C(=O)NC2CC(C)(C)NC(C)(C)C2)c1`, the “hERG current change (%, negative = inhibition) at 10uM” value worked out at 2.93%.
Take `COc1ccc(NC(=O)Cn2cnc3ccccc3c2=O)cc1OC`: the “hERG current change (%, negative = inhibition) at 10uM” value was determined as 34.3%.
For `CCCCNC(=O)CC(NS(=O)(=O)c1ccc(C)cc1)c1ccco1` (stereo not drawn) the value was 4.82%; for `Cc1ccc(O)c(C(=O)c2cc(C#N)c3nc4ccccc4n3c2)c1`, 19.9%.
On to `Cc1ccc(NC(=O)Cc2c(O)c3ccccc3[nH]c2=O)c(C)c1`, for which the “hERG current change (%, negative = inhibition) at 10uM” value is on record as -1.34%.
For `Cc1ccccc1NC(=O)COc1ccc(Br)cc1CNCCCO.Cl` the value was -15.6%; for `COc1ccc(CN2CCCC(C(=O)c3cccc(OC(C)C)c3)C2)cc1Cn1cccn1` (stereo not drawn), -69.9%; for `COc1ccccc1N1CCN(C(=O)CSc2ncccc2-c2nc3ccccc3[nH]2)CC1`, -23.7%.
Take `CN(C)C(=O)NCc1ccc(S(N)(=O)=O)cc1`: the “hERG current change (%, negative = inhibition) at 10uM” value amounted to 12.7%.
For `CC1=C(C)C(=O)N(C(C)CCc2ccccc2)C1=O` (stereo not drawn) the value was 4.9%; for `O=[N+]([O-])c1cccc(Cl)c1N1CCOCC1`, -3.01%.
For `Cc1ccccc1CCN(CC(=O)NCc1ccc(F)cc1)C(=O)c1csnn1` the value was -14.1%; for `O=C(NCCN1CCOCC1)C1CCN(c2ncnc3c2sc2cccc(F)c23)CC1`, -25.6%.
For `Nc1ccncc1Cl` the value was 4.66%; for `O=P(CO)(Cc1ccccc1)Cc1ccccc1`, 5.29%; for `Cc1ccc(C)c(NC(=O)C2Cc3ccccc3CN2C(=O)OCc2ccccc2)c1` (stereo not drawn), -2.01%.
For `Cc1ccc(NC(=O)C2CCCN(C(=O)Nc3ccc(F)cc3)C2)cc1` (stereo not drawn), the “hERG current change (%, negative = inhibition) at 10uM” value was determined as 0.441%.
For the compound `CC1=CC(c2ccccc2)n2nc(NC(=O)CCC(=O)O)nc2N1` (stereo not drawn), the “hERG current change (%, negative = inhibition) at 10uM” value was determined as 9.52%.
In the case of `O=C(CSc1nnc(-c2ccc(Br)cc2)o1)Nc1cccc(C(=O)O)c1`, the “hERG current change (%, negative = inhibition) at 10uM” value was 6.73%.
Turning to `CC(=O)Nc1ccc(S(=O)(=O)N2CCN(c3ccc(C)c(Cl)c3)CC2)cc1`, the “hERG current change (%, negative = inhibition) at 10uM” value is given as 5.31%.
For `CCN(CC(=O)Nc1c(F)cccc1F)C(=O)c1ccc(N2C(=O)c3ccccc3C2=O)cc1`, the “hERG current change (%, negative = inhibition) at 10uM” value is listed as 1.38%.
With `Cc1nc(NC(=O)CSc2nnc(C3CC3)n2C)sc1C`, the “hERG current change (%, negative = inhibition) at 10uM” value was 11.8%.
As for `CC(=O)Oc1ccc2c(C)c(CC(C)O)c(=O)oc2c1` (stereo not drawn), the figure is 6.98%; as for `CCOC1(c2ccccc2)CC1C(=O)N/N=C/c1cccc([N+](=O)[O-])c1` (stereo not drawn), 0.132%; as for `COc1ccc2c(c1)C(=O)OC2CC(=O)O` (stereo not drawn), 2.55%.
As for `O=C(Cn1[nH]c(=O)c2ccccc2c1=O)N1CC=C(c2ccccc2)CC1`, the figure is -4.76%; as for `CC(C)c1ccc(NC(=O)CN2C(=O)NC(C)(C3CC3)C2=O)cc1` (stereo not drawn), -0.0473%; as for `COc1ccc2[nH]c(C(=O)Nc3cccc(C)n3)cc2c1`, 14.9%.
On to `COc1ccc(C(O)c2coc3ccc(O)c(CN(C)C)c23)cc1` (stereo not drawn), for which the “hERG current change (%, negative = inhibition) at 10uM” value is given as -47.9%.
In the case of `CC[N+]1=C(C)C(C)(C)c2cc(C)ccc21.[I-]`, the “hERG current change (%, negative = inhibition) at 10uM” value is on record as -5.19%.
For `Cc1c(C(=O)OCc2ccccc2)[nH]c2c1C(=O)CC(c1ccco1)C2` (stereo not drawn) the value was 3.85%.
For `FC(F)(F)c1nc2ccccc2n1CCNc1nc(CN2CCCCC2)cs1` the value was 14.1%; for `CC1N(C(=O)N2CCOCC2)CCN1S(=O)(=O)c1ccc(Cl)cc1` (stereo not drawn), 7.92%.
For `CCOc1ccc(-n2cc(C(=O)NC(C)C)c3cc(OC)c(OC)cc3c2=O)cc1` the value was -3.27%; for `Cc1noc(C)c1C(=O)Nc1ccc(F)cc1F`, -1.56%.
Regarding `COc1ccccc1C1/C(=C(/O)c2ccccc2)C(=O)C(=O)N1CC(C)C` (stereo not drawn), the “hERG current change (%, negative = inhibition) at 10uM” value was 6.81%.
Regarding `COCc1cc(=O)[nH]c(/N=C(\N)Nc2ccc(Cl)c(Cl)c2)n1`, the “hERG current change (%, negative = inhibition) at 10uM” value came to 17.4%.
Turning to `Cc1cc(C)n2nc(CNS(=O)(=O)c3c(F)c(F)c(F)c(F)c3F)nc2n1`, the “hERG current change (%, negative = inhibition) at 10uM” value is given as -45%.
Regarding `Cl.O=C1CC(=C(c2ccccc2)c2ccccc2)C(=O)N1CCCCN1CCN(c2cccc(Cl)c2)CC1`, the “hERG current change (%, negative = inhibition) at 10uM” value is -46%.
Regarding `CCOC(=O)CSc1nc2cc3c(cc2cc1CC)OCCO3`, the “hERG current change (%, negative = inhibition) at 10uM” value was 2.39%.
Regarding `Cc1nn2c(-c3ccco3)nnc2c2ccccc12`, the “hERG current change (%, negative = inhibition) at 10uM” value is on record as -27.1%.
With `CC(=O)c1cccc(CN2CCN(CCc3ccccc3)C(CCO)C2)c1` (stereo not drawn), the “hERG current change (%, negative = inhibition) at 10uM” value was -53.3%.
With `CC1CCC(NS(=O)(=O)c2cccc3nsnc23)CC1` (stereo not drawn), the “hERG current change (%, negative = inhibition) at 10uM” value was -2.16%.
As for `C=CCNC(=O)COC(=O)C1CCN(S(=O)(=O)c2ccc3c(c2)OCCO3)CC1`, the figure is -2.38%; as for `O=c1[nH]c2ccccc2nc1-c1ccccc1`, 8.4%.
As for `Cc1nnc(SCC(=O)NC(=O)Nc2ccc3c(c2)OCCO3)n1N`, the figure is 0.21%; as for `Cc1cc(C)c(S(=O)(=O)N2CCN(c3ccc([N+](=O)[O-])c(-n4nc(C)cc4C)c3)CC2)c(C)c1`, -7.91%.
On to `CC(CC(=O)Nc1ncc([N+](=O)[O-])s1)c1ccccc1` (stereo not drawn), for which the “hERG current change (%, negative = inhibition) at 10uM” value was 0.741%.
For `CC(=O)c1ccc(N2CCN(C(=O)c3ccc(NC(=O)C4CCCO4)cc3)CC2)cc1` (stereo not drawn) the value was -6.34%.
For `COc1ccc(C)cc1N(C(=O)c1cccc(F)c1)c1nc2ccccc2s1` the value was -8%.
For `CCOC(=O)C1=C(C)NC(=O)CC1c1ccccc1` (stereo not drawn) the value was -0.777%; for `COc1ccc(-c2cc(C(=O)NN)n(-c3ccccc3)n2)cc1`, -22.3%; for `CC(C)CNC(=S)N(CCN(C)C)Cc1cc2cc3c(cc2[nH]c1=O)OCCO3`, 10.6%.
Consider `Cc1nccn1CCc1n[nH]c(=S)n1Cc1ccccc1`, for which the “hERG current change (%, negative = inhibition) at 10uM” value is on record as -23.9%.
As for `OCCNc1nc2ccccc2n1-c1ccccc1`, the figure is 5.75%; as for `CCOc1ccc(C2=[N+]([O-])C(C)(C)N(O)C2(C)C)cc1`, 2.54%; as for `CCn1c(SCC(=O)NC2CCCCC2C)nnc1-c1ccc(OC)cc1` (stereo not drawn), -12.8%.
With `O=C1CCCC2=C1C(c1ccc(Cl)cc1)C1C(=O)c3ccccc3C1=N2` (stereo not drawn), the “hERG current change (%, negative = inhibition) at 10uM” value is listed as -7.96%.
On to `COc1cc2c(cc1OC)C(c1cccs1)N(C(=O)c1cccnc1)CC2` (stereo not drawn), for which the “hERG current change (%, negative = inhibition) at 10uM” value is -54.9%.
As for `COc1ccc(OC2CCN(S(=O)(=O)c3ccc(OC)c(OC)c3)CC2)cc1`, the figure is -30.9%; as for `COc1ccccc1NC(=O)NCCN1CCN(c2cccc(Cl)c2)CC1`, -9.6%; as for `Br.Cc1cccc(N2C(=O)SC(SC(=Nc3ccccc3)Nc3ccccc3)C2=O)c1` (stereo not drawn), 15.3%.
For the compound `CCOc1ccccc1Nc1nc(N)nc(CN2CCCCC2C)n1` (stereo not drawn), the “hERG current change (%, negative = inhibition) at 10uM” value is recorded as -50%.
In the case of `COc1ccc(C2C(C(=O)OCC(=O)N3CCCCC3)CCC(=O)N2c2ccc(OC)cc2)cc1` (stereo not drawn), the “hERG current change (%, negative = inhibition) at 10uM” value is on record as -13.3%.
For the compound `COc1ccccc1Oc1ccc(NC(=O)c2ccc(Cl)cc2)cc1`, the “hERG current change (%, negative = inhibition) at 10uM” value came to 18.1%.
For the compound `Cc1nn(C)cc1CNC(=O)c1cccc(Cl)c1`, the “hERG current change (%, negative = inhibition) at 10uM” value was -2.62%.
As for `COc1cc2c(cc1OC)/C(=C/C(=O)c1ccc(F)cc1)NCC2`, the figure is -19.5%.
For `O=C(CNC(=O)c1ccc(-c2ccccc2)cc1)OCc1c(F)cccc1Cl` the value was 17.3%; for `Cc1ccsc1C1NC(=O)c2c(sc3c2CCN(C)C3)N1` (stereo not drawn), -6.6%; for `O=C(Nc1ccccc1C(=O)N1CCOCC1)C1CC(=O)N(c2ccc(F)cc2)C1` (stereo not drawn), -0.294%.
For the compound `Cc1cc([N+](=O)[O-])nn1CCCC(=O)NC(C)c1ccccc1` (stereo not drawn), the “hERG current change (%, negative = inhibition) at 10uM” value is listed as -7.05%.
For `Cc1coc2cc3oc(=O)c(CCC(=O)NCCCn4ccnc4)c(C)c3cc12` the value was -41.4%; for `Cc1ccc(C2C(C#N)=C(N)SC(N)=C2C#N)o1`, -4.47%.
Consider `CC(C)(C)N(Cc1cc2ccccc2[nH]c1=O)C(=O)C1CCCCC1`, for which the “hERG current change (%, negative = inhibition) at 10uM” value is recorded as -11.9%.
For `CC1=C(C(N)=O)C(c2sccc2C)n2nnnc2N1` (stereo not drawn) the value was 11.1%; for `O=C(CCl)N(c1ccccc1)C1CCS(=O)(=O)C1` (stereo not drawn), 1.75%; for `CC1CCC2(CC1)NC(=O)N(CC(=O)Nc1cccc(C#N)c1)C2=O` (stereo not drawn), 9.8%.
Regarding `CN(CC(=O)NC1CCCCC1)S(=O)(=O)c1ccc(Br)s1`, the “hERG current change (%, negative = inhibition) at 10uM” value is 20.1%.
As for `Cc1cccc(OCCCCN2CCNCC2)c1`, the figure is 14.2%; as for `C/C(=N\NC(=O)c1nnn(-c2nonc2N)c1CSc1ccc(C)cc1)c1ccco1`, -9.04%.
As for `O=C(c1ccccc1)N1CCN2C(=O)c3ccccc3C12c1ccc(Cl)cc1` (stereo not drawn), the figure is -25%; as for `COc1cc(NC(=O)NCC2CCN(Cc3ccccc3F)CC2)cc(OC)c1`, -14.9%.

(Values after paper PMC4336329 (PLoS ONE, 2015).)
